Paper PMC4336329 (PLoS ONE, 2015)
About 2,200 (0.71%) of roughly 310,000 compounds showed an effect of 50% or more. Effects have a minus sign here. Some of the results follow.

target: human ether-à-go-go-related gene (hERG) potassium channel (human, UniProt Q12809); assay: primary screen, population patch clamp on CHO cells stably expressing hERG
Sequence (Q12809 whole entry, looked up): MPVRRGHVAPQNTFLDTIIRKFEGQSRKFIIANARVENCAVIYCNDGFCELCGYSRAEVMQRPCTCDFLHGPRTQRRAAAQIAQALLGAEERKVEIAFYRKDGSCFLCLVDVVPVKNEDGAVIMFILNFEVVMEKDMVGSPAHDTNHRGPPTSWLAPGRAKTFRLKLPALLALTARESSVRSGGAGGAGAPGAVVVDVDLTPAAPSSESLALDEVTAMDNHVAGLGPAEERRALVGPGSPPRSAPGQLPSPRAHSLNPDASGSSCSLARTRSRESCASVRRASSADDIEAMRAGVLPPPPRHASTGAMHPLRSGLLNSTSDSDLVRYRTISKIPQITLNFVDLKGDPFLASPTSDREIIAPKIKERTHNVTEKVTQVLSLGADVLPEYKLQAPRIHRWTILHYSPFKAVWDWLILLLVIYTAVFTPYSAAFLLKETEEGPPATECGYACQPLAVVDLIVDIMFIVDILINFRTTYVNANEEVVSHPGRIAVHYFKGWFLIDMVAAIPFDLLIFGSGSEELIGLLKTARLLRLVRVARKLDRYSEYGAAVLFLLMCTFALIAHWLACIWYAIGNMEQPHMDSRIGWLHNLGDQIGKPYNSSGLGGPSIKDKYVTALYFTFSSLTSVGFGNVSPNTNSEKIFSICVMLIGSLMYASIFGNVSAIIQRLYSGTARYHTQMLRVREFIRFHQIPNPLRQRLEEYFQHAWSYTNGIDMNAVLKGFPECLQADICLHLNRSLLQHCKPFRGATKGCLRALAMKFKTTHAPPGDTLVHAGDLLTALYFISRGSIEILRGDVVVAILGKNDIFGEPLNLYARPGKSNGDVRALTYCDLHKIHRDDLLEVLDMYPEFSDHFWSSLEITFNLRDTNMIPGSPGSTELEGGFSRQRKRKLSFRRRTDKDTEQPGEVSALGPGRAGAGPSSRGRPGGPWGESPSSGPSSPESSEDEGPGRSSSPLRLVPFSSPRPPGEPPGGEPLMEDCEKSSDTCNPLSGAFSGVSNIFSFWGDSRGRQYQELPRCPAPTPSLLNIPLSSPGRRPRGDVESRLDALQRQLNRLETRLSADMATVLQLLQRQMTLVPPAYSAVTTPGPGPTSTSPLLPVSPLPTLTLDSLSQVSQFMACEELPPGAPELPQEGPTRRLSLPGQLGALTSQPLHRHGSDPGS

Row | SMILES | hERG current change (%, negative = inhibition) at 1uM [%]
1 | CC(NC(=O)Cn1cnc2c1c(=O)n(C)c(=O)n2C)c1ccccc1 (stereo not drawn) | 6.17
2 | CCCCn1c(N)c(N(CC)C(=O)c2ccc(N(C)S(=O)(=O)c3ccc(C)cc3)cc2)c(=O)[nH]c1=O | 3.24
3 | CN(C)c1ccc(/C=C/c2cccc[n+]2[O-])cc1 | 16
4 | COc1ccc(NC(=O)c2scc(S(=O)(=O)C(C)C)c2N)cc1 | 13.3
5 | C#CCOCCOCCOCCNc1nc(N2CCN(C(=O)Cn3cc(CCCC[NH3+])nn3)CC2)nc(N2CCN(C(=O)[C@H]([C@@H](C)CC)n3cc(CCCC[NH3+])nn3)CC2)n1.[Cl-] | 9.19
6 | Cc1ccc(NC(=O)c2ccc(OCC3CCCO3)cc2)cc1 (stereo not drawn) | -4.17
7 | Cc1ccc(-n2c(SCC(=O)Nc3cccc(S(=O)(=O)NC4=NCCCCC4)c3)nc3ccccc3c2=O)cc1 | -2.44
8 | COc1ccc(CSc2nnc(C)n2N)cc1[N+](=O)[O-] | -0.178
9 | Cc1occc1-c1nnc(SCC(=O)c2ccc(Cl)cc2)n1C | 3.21
10 | CCn1c(C)nnc1SCC(=O)Nc1ccccc1OC | 15.1
11 | C=CCNC(=O)COC(=O)c1ccc(Sc2nncn2C)c([N+](=O)[O-])c1 | 9.83
12 | Cc1sc2ncn(CC(=O)NCc3ccccc3)c(=O)c2c1C | 10.7
13 | O=C(N/N=C/c1cccc(O)c1)C(=O)N1CCCCCC1 | 10.4
14 | Cc1ccn2c(C(=O)CSc3ccc(Cl)cc3Cl)c(C)nc2c1 | 18.3
15 | CSc1sccc1/C=N/NC(=O)c1ccncc1 | 10.2
16 | O=C(CCC(=O)Nc1nnc(C2CCCCC2)s1)NCc1cccs1 | 12.7
17 | CN(C(=O)COC(=O)CCC1CCCCC1)c1c(N)n(Cc2ccccc2)c(=O)[nH]c1=O | 15.6
18 | CCOC(=O)C1(Cc2ccccc2C)CCCN(C(=O)c2cc(CC)nn2C)C1 (stereo not drawn) | 5.67
19 | O=[N+]([O-])c1ccc(NC(=S)NCCc2ccc(F)cc2)cc1 | 1.03
20 | CSc1nc(C)nc(N/C=C(\C#N)S(=O)(=O)c2ccccc2Cl)n1 | 6.24
21 | Cc1cc(-c2nn3c(-c4ccccc4)nnc3s2)c2ccccc2n1 | 6.78
22 | Cc1cc(C)n(CCCNC(=O)CCNS(=O)(=O)c2ccccc2C(F)(F)F)n1 | 9.68

Row | SMILES | hERG current change (%, negative = inhibition) at 1uM [%]
23 | COC(=O)c1c(C(=O)OC)n(CCCN)c2ccc(C)cc12.Cl | -5.36
24 | COC(=O)c1ccc(Nc2cc(C)nc3ccc(C)cc23)cc1.Cl | -9.09
25 | CCc1nnc(NC(=O)CSc2nc3c([nH]c4ccccc43)c(=O)n2CCOC)s1 | 4.47
26 | O=C1C=C(Nc2ccccc2O)c2ccccc2C1=O | -5.19
27 | Cc1cc(C)n(Cc2ccccc2F)c(=O)c1C#N | 10.6
28 | CCC(C)C(=O)Nc1nc2c(s1)C(=O)CC(C)(C)C2 (stereo not drawn) | 5.59
29 | Cc1cc(F)ccc1NS(=O)(=O)c1c(C)nc2scc(C)n2c1=O | -7.24
30 | C[C@@]12C(=O)N(Cc3ccccc3)CC(=O)N1[C@H]1c3ccccc3OC[C@@H]1[C@@H]2c1ccccc1 | 13.5
31 | Cc1ccc(S(=O)(=O)NNC(=O)Nc2cccc(C)c2C)c(C)c1 | 9.75
32 | Cc1ccc(NC(=O)CN(C)C(=O)CSc2n[nH]c(N)n2)cc1 | 3.99
33 | COc1ccc(OCc2cc(C(=O)O)c(C)o2)cc1 | 12.3
34 | CCOC(=O)Cn1c(=NC(=O)CC)sc2c(C)cc(C)cc21 | 13.1
35 | C=CCNC(=O)C1CCN(S(=O)(=O)c2ccc(Br)cc2)CC1 | -12.5
36 | CCC1Oc2ccc(C)cc2N(CC(=O)N(Cc2ccc(C)o2)C2CC(C)(C)NC(C)(C)C2)C1=O (stereo not drawn) | 2.6
37 | COc1ccc(C[C@H]2CN3C(=NC[C@H]3Cc3ccccc3)N2CCNC(=O)c2ccc(C)c(Br)c2)cc1 | -24.7
38 | CCCN1CCN(C(=O)Nc2cccc(C(F)(F)F)c2)CC1 | -6.7
39 | Cc1cc(C)nc(SCC(=O)c2ccc(O)cc2O)n1 | 11.3
40 | CCN(CC)S(=O)(=O)c1ccc(N2CCCCC2)c(NC(=O)/C=C/c2cc(OC)c(OC)c(OC)c2)c1 | 9.49
41 | Cc1cccc2cc(C3CC(c4ccco4)=NN3S(C)(=O)=O)c(Cl)nc12 (stereo not drawn) | 9.7
42 | CCOc1cc(C2c3c(-c4ccccc4)n[nH]c3C(=O)N2c2ccc(C(=O)O)cc2)ccc1O (stereo not drawn) | 5.4
43 | Cc1ccnc(NC(=O)CCC(=O)N(CC(=O)NC2CCCCC2)Cc2ccccc2)c1 | 12.6
44 | Cn1nnnc1SCC(=O)Nc1ccccc1Br | 5.29

Row | SMILES | hERG current change (%, negative = inhibition) at 1uM [%]
45 | Cc1csc(=O)n1CC(=O)OC(C)C(=O)Nc1ccc(F)c(F)c1F (stereo not drawn) | 12.9
46 | c1cnc(N2CCSCC2)nc1 | 3.46
47 | CC(CCc1ccccc1)NC(=O)c1ccc(Br)o1 (stereo not drawn) | 9.48
48 | Cn1c(SCC(=O)Nc2cccc(F)c2)nc2c(c1=O)SCC2 | 8.74
49 | CN(C)S(=O)(=O)c1cccc(C(=O)Nc2ccc(S(=O)(=O)N3CCCC3)cc2)c1 | 13.5
50 | COc1ccc(C(=O)O/N=C(\N)c2ccc(OC)c(OC)c2)cc1 | 6.77
51 | Cc1nn(Cc2ccccc2)c(C)c1NC(=O)CSc1n[nH]c(C)c1[N+](=O)[O-] | 5.93
52 | Cc1c(C)c2c(OCC(=O)NCC(O)c3ccccc3)cc3c(c2oc1=O)CCC(C)(C)O3 (stereo not drawn) | 13.7
53 | Cc1nn(C)c(Oc2ccc(Cl)cc2)c1C(=O)O | 15.2
54 | CC(C)NC(=O)C(=O)N/N=C/c1ccco1 | 15.4
55 | CC(C)NCC1CCc2cc(CO)c([N+](=O)[O-])cc2N1 (stereo not drawn) | 16.2
56 | N#Cc1cc(Oc2cccc3cccnc23)c(-n2nnc3ccccc32)cc1C#N | 6.89
57 | O=[N+]([O-])c1ccc(/C=N/Nc2nc(N3CCOCC3)nc(N3CCOCC3)n2)cc1 | 13.3
58 | CC1CN(CCOc2ccccc2[N+](=O)[O-])CC(C)O1.O=C(O)C(=O)O (stereo not drawn) | 7.35
59 | Cc1ccc(C)c(CN2C(=O)c3ccccc3S(=O)c3ccc(C(=O)N4CCN(c5ccccn5)CC4)cc32)c1 (stereo not drawn) | 4.96
60 | COc1cc(C)ccc1OCCOCCOc1ccccc1Br | 16.7
61 | CC(=O)n1cc(N(C(=O)CCl)c2ccccc2)c2ccccc21 | 16
62 | O=C(O)CCNc1cc2ccccc2cc1C(=O)O | 1.77
63 | CN(C(=O)CSc1nc2sc3c(c2c(=O)n1C)CCC3)C1CCS(=O)(=O)C1 (stereo not drawn) | 11.4
64 | O=c1[nH]c(Nc2ccccc2)cc2cc(Br)ccc12 | 9.83
65 | COc1ccc(S(=O)(=O)N2CCCC(C(=O)Nc3cccc(C(C)=O)c3)C2)cc1 (stereo not drawn) | 4.17
66 | Cc1c(C)[n+](=O)c2c(n1[O-])C(Br)CCC2Br (stereo not drawn) | 3.4

Row | SMILES | hERG current change (%, negative = inhibition) at 1uM [%]
67 | O=C(Nc1ccc(Cl)cc1)Nc1cnccn1 | 11.6
68 | COc1ccc(NC(=O)c2ccccc2SC)c(OC)c1 | 13.8
69 | Nc1ncnc(N(c2ccccc2)C2CCCCC2)c1[N+](=O)[O-] | 8.32
70 | Cc1[nH]c2ccccc2c1Cc1nnc(SCc2ccccc2)o1 | 8.04
71 | CCc1ccc(N2CC(C(=O)OCC(=O)Nc3cc(C)on3)CC2=O)cc1 (stereo not drawn) | 4.2
72 | COc1cccc(OC)c1OCCNCC1CSc2ccccc2O1.Cl (stereo not drawn) | -10.8
73 | Cc1ccc(NC(=S)Nc2ccc(F)cc2)cc1C | 10.2
74 | CC1Cc2ccccc2N1C(=O)c1ccc2c(c1)nnn2C (stereo not drawn) | 8.12
75 | N#Cc1nc(/C=C/c2ccccc2)oc1NCCCN1CCOCC1 | 2.31
76 | Cc1cc(-c2csc(N)n2)c(C)n1-c1ccc(Cl)c(Cl)c1 | 15.2
77 | CCc1cccc(NC(=O)CCNS(=O)(=O)c2ccc3c(c2)oc(=O)n3C)c1 | 7.18
78 | COC(=O)CN(c1cc(Cl)ccc1OC)S(=O)(=O)c1ccc(C)cc1 | 3.62
79 | COc1ccc(/C=N/NC(=O)COc2ccccc2-c2ccccc2)cc1 | 10.1
80 | COc1ccc(-c2oc3ccccc3c2C(=O)OCc2ccc([N+](=O)[O-])cc2)cc1 | 13.4
81 | Cn1c(=O)c2c(nc(NCCCO)n2Cc2cccc(C(F)(F)F)c2)n(C)c1=O | 10.6
82 | COc1ccccc1N(CC(=O)Nc1ccc(F)c(F)c1)S(C)(=O)=O | 15.8
83 | CCOC(=O)N1CCN(c2ccc(C(=O)c3cccc(F)c3)cc2)CC1 | 4.15
84 | O=C(NCc1nnc(SCC(=O)N2CCCC2)o1)c1c(F)cccc1F | 6.25
85 | CCN(CC)C(=O)c1ccc2c(c1)C1C(Cl)C(Sc3ccccc3[N+](=O)[O-])CC1C(C(=O)O)N2 (stereo not drawn) | -10.8
86 | CCOc1nc(NC(C)C)nc(N2CC3CC(C2)c2cccc(=O)n2C3)n1 (stereo not drawn) | 5.76
87 | OC(CN1CCN(c2ccc(F)cc2)CC1)c1ccc(Cl)cc1 (stereo not drawn) | 2.87
